# Data published in the antibiotic and cytotoxicity screens of Wong et al. (2023).
# The other results are listed elsewhere or left out.
# Test system: HSkMC (human skeletal muscle cells)
# Assay: cytotoxicity call (relative viability < 0.9)
# Conditions: 10 µM
row,SMILES,cytotoxicity call
1,CS(=O)(=O)NCc1cnc2n1CCN(C(=O)[C@H]1CCOC1)CC2,inactive
2,COc1ccccc1C#Cc1ccc2c(c1)O[C@H](CN(C)Cc1cncnc1)[C@@H](C)CN([C@@H](C)CO)S2(=O)=O,inactive
3,N=C(N)c1ccc(OCCCCCOc2ccc(C(=N)N)cc2)cc1.O=S(=O)(O)CCO.O=S(=O)(O)CCO,inactive
4,C[C@H]1CN([C@@H](C)CO)C(=O)c2cccc(NC(=O)Nc3ccc(C(F)(F)F)cc3)c2O[C@@H]1CN(C)Cc1ccncc1,inactive
5,COc1ccc(S(=O)(=O)Nc2ccc3c(c2)C(=O)N([C@H](C)CO)C[C@H](C)[C@H](CN(C)S(=O)(=O)c2cn(C)cn2)OCCCC[C@H](C)O3)cc1,inactive
6,C[C@H](CO)N1C[C@H](C)[C@@H](CN(C)C(=O)Nc2cccc3ccccc23)Oc2ccc(NS(=O)(=O)c3cccs3)cc2C1=O,inactive
7,Cc1noc(C)c1S(=O)(=O)N(C)C[C@@H]1Oc2ccc(NC(=O)C3CC3)cc2CC(=O)N([C@@H](C)CO)C[C@@H]1C,inactive
8,C[C@@H]1CN([C@H](C)CO)C(=O)Cc2cc(NC(=O)Nc3ccc4c(c3)OCO4)ccc2O[C@H]1CN(C)Cc1ccc(C(=O)Nc2ccccc2N)cc1,inactive
9,COCCOC(=O)N1C(=O)[C@@]2(c3cc(C#CC4(O)CCCCCC4)ccc31)[C@H](c1ccc(O)cc1)N1[C@H](c3ccccc3)[C@H](c3ccccc3)OC(=O)[C@H]1[C@@H]2C(N)=O,inactive
10,Cc1noc(C)c1NC(=O)Nc1cccc2c1O[C@@H](CN(C)Cc1ccc(Oc3ccccc3)cc1)[C@H](C)CN([C@H](C)CO)C2=O,inactive
11,Cc1cc(C)c(S(=O)(=O)N2CCO[C@@H]2CNC(=O)C(=O)NCCCN2CCCC2=O)c(C)c1,inactive
12,C[C@@H]1CN([C@@H](C)CO)C(=O)c2cc(C#CC3CCCCC3)cnc2O[C@@H]1CN(C)C(=O)Cc1ccccn1,inactive
